Binding signal data for nine molecules are collected here from article PMC9911399, “Two distinct binding modes provide the RNA-binding protein RbFox with extraordinary sequence specificity”.

B1: CGAUCCG (DNA:RNA)
RNA: GGGAGACCGGAAUUCAGAUUGUCCCGAUCCGUUAAAUCCCGUCGUAGCCACCA
DNA 1: CAATCTGAATTCCGGTCTCCC
DNA 2: TGGTGGCTACGACGGGATT
B2: UGAAUCC (DNA:RNA)
RNA: B1 RNA with C25U, U28A, C29U, G31C
DNA 1: CAATCTGAATTCCGGTCTCCC
DNA 2: TGGTGGCTACGACGGGATT
B3: AGCCUGU (DNA:RNA)
RNA: B1 RNA with C25A, A27C, U28C, C29U, C30G, G31U
DNA 1: CAATCTGAATTCCGGTCTCCC
DNA 2: TGGTGGCTACGACGGGATT
B4: GUCCGCG (DNA:RNA)
RNA: B1 RNA with C25G, G26U, A27C, U28C, C29G
DNA 1: CAATCTGAATTCCGGTCTCCC
DNA 2: TGGTGGCTACGACGGGATT
B5: ACAAUGG (DNA:RNA)
RNA: B1 RNA with C25A, G26C, U28A, C29U, C30G
DNA 1: CAATCTGAATTCCGGTCTCCC
DNA 2: TGGTGGCTACGACGGGATT
B6: AUCCACC (DNA:RNA)
RNA: B1 RNA with C25A, G26U, A27C, U28C, C29A, G31C
DNA 1: CAATCTGAATTCCGGTCTCCC
DNA 2: TGGTGGCTACGACGGGATT
B7: UCGCACG (DNA:RNA)
RNA: B1 RNA with C25U, G26C, A27G, U28C, C29A
DNA 1: CAATCTGAATTCCGGTCTCCC
DNA 2: TGGTGGCTACGACGGGATT
B8: GAACUAA (DNA:RNA)
RNA: B1 RNA with C25G, G26A, U28C, C29U, C30A, G31A
DNA 1: CAATCTGAATTCCGGTCTCCC
DNA 2: TGGTGGCTACGACGGGATT
B9: CGACUUC (DNA:RNA)
RNA: B1 RNA with U28C, C29U, C30U, G31C
DNA 1: CAATCTGAATTCCGGTCTCCC
DNA 2: TGGTGGCTACGACGGGATT

Substitutions are numbered along the chain they refer to; changes in the protein carry UniProt numbers. The list shows a part of the results.

This test concerns the target T1, RBFOX1 RRM (Homo sapiens, UniProt Q9NWB1 109-208).
T1 sequence: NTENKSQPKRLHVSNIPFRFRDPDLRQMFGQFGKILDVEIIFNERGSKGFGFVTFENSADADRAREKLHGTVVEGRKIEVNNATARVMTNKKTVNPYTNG
Briefly: EMSA; HiTS-Eq, 1 nM pool, 10 min; buffer printed only for the single-RNA assays: 10 mM Tris pH 7.5, 150 mM NaCl, 3.4 mM EDTA, 0.001% NP-40, 30 C. The note with it: tags: His6 N-terminal (pET28a); label: 5' 32P. The method, boiled down: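 A pool of RNA with 7 randomized nucleotides, 5′-radiolabelled and with DNA-annealed flanks, was equilibrated at 1 nM for 10 min in 50 µL with purified RbFox RRM, wild type or mutant, across increasing protein concentrations. Free RNA was separated by 8% native PAGE, excised, reverse-transcribed, barcoded by PCR and sequenced. Relative association constants were obtained from read-count changes of each RNA species versus the control reaction and normalised to the cognate motif.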
In general terms: A gel shift assay detects complexes by their altered migration in electrophoresis.
For B1, the binding signal was 0.0101 KA relative to UGCAUGU.

Take B2: the binding signal was 0.0114 KA relative to UGCAUGU.

Take B3: the binding signal was 0.0167 KA relative to UGCAUGU.

On to B4, for which the binding signal was 0.014 KA relative to UGCAUGU.

In the case of B5, the binding signal was 0.00776 KA relative to UGCAUGU.

For the molecule B6, the binding signal was 0.000451 KA relative to UGCAUGU.

Turning to B7, the binding signal is 0.0586 KA relative to UGCAUGU.

B8: the binding signal is 0.00238 KA relative to UGCAUGU.

Regarding B9, the binding signal was 0.01 KA relative to UGCAUGU.
